Results on 8 molecules are retold here after the supplement of paper PMC10300432.

The target of assay [1] is SARS-CoV-2 Omicron BA.1 spike pseudovirus. The assay can be described thus: pseudovirus neutralization IC50; higher = weaker neutralization. On the procedure:
(§1)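 Single-round luciferase reporter pseudovirus mixed with antibody dilutions and put on HT1080-ACE2 clone 14 cells for 48 h; signal relative to no-antibody wells, four-parameter fit.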

The target in assay [2] is SARS-CoV-2 Omicron BA.4/5 spike pseudovirus. The assay is described as above. On the procedure: as §1
Assay [3] concerns the target SARS-CoV-2 Wuhan-Hu-1 spike pseudovirus. Described as above. The procedure: as §1
The target in assay [4] is SARS-CoV-2 Wuhan-Hu-1 spike receptor-binding domain. The assay is described as follows: ELISA binding EC50; higher = weaker binding; ELISA of recombinant human antibody on coated antigen, from 10 µg/ml in fourfold dilutions; four-parameter fit. A general note: In an ELISA, binding on a coated surface is turned into a signal by an enzyme label.

Recombinant human monoclonal antibodies (heavy:light variable regions). ELISA EC50 on the named antigen, from 10 µg/ml down; IC50 against spike pseudovirus on HT1080-ACE2 cells, 48 h; lower = stronger. Calls: IC50 above 1,000 ng/ml = non-neutralizing; EC50 above 1,000 ng/ml = non-binder.

B1: C5229 (protein)
chain 1: EVQLVESGGGLVQPGGSLRLSCAASGFTFRNYDMHWVRQTTGKRLEWVSVIGTAGDTYYSDSVKGRFTISRENAKNSLYLHMTSLRAGDTAVYYCARGATMTTVAFDIWGQGTMVTVSS
chain 2: DIQMTQSPSSLSASVGDRVTISCQASQDISNYLNWYQQKPGKAPKLLISDASNLETGVPSRFSGRGSGTDFTFTISSLQPEDIATYYCLQYDNLPITFGQGTRLEIK
Turning to B1, the “pseudovirus neutralization IC50” value in assay [1], in assay [2] and in assay [3] was more than 1000 ng/mL throughout. The “ELISA binding EC50” value in assay [4] is 2.82 ng/mL.

B2: C5038 (protein)
chain 1: EVQLLESGGGLVQPGGSLRLSCAASGFTFKMFAVSWVRQAPGKGLEWVSTITGPVINTFYADSVKGRFTISRDNSKNTLYLQMDSLRADDTALYYCAKDREDQSIVPNAPFDSWGQGTLVTVSS
chain 2: QSALTQPASVSGGPGQSITISCTGTSSDIGDYNYVSWYQQHPGKAPKLIIFDVSNRPSGVSHRFSGSKSGNTASLTISGLQADDEADYYCSSYTSSSSLAFGTGTTVTVL
As for B2, the “pseudovirus neutralization IC50” value in assay [1] was 25.7 ng/mL; in assay [2] it was more than 1000 ng/mL; in assay [3], 16.5 ng/mL. For the same molecule, the “ELISA binding EC50” value in assay [4] worked out at 3.17 ng/mL.

B3: C5226 (protein)
chain 1: EVQLVESGGGLIQPGGSLRLSCAASGLTVSSNYMSWVRQAPGKGLEWVSVFYPGGTTYYADSVKGRFTISRDNSKNTLYLQMNSLRAEDTAVYYCARGAGHYYGMDVWGQGTTVTVSS
chain 2: DIQLTQSPSLLSASVGDRVTVTCRASQGISNYLAWYQQKPGKAPKLLIYAASTLQSGVPSRFSGSGAGTEFTLTISRLQPEDFGTYYCQQLNSYPKLTFGGGTKVEIK
With B3, the “pseudovirus neutralization IC50” value in assay [1] is more than 1000 ng/mL; in assay [2], more than 1000 ng/mL; in assay [3], 14.9 ng/mL. Also, in assay [4], the “ELISA binding EC50” value amounted to 6.72 ng/mL.

B4: C5225 (protein)
chain 1: QVQLVQSGAEVKKPGSSVKVSCKASGGTFSRYAFSWVRQAPGQGLEWMGGIIPVFGTTNYAQKFQGRVIITADKSTSTAYMELSSLRSEDTAVYYCARDRQIQPNNYYHSGMDVWGQGTTVTVSS
chain 2: DIQMTQSPSSLSASVGDRVTITCQASQDITNSLNWYQQKPGRAPKLLIYDASNLDTGVPSRFSGSGSGTDFTFTISSLQPEDIATYYCQQYENLPTFGPGTKVDIK
On to B4, for which the “pseudovirus neutralization IC50” value was 3.89 ng/mL in assay [1], more than 1000 ng/mL in assay [2] and 2.89 ng/mL in assay [3]. Also, the “ELISA binding EC50” value in assay [4] came out at 3.29 ng/mL.

B5: C5227 (protein)
chain 1: EVQLVESGGGLIQPGRSLRLSCAASGFTFDDYAIHWVRQAPGKGLEWVSGISANGGIIGYADSVKGRFTISRDNAKNSLHLQMNRLRAEDTAFYYCAKDHRTYYDVLTGFYVWKGFFDYWGQGTLVTVSS
chain 2: DIQMTQSPSSLSASVGDRVTITCRASQGISNSLAWYQQKPGKAPRLLLYAASTLESGVPSRFSGSGSGTDFTLTISSLQPEDFATYYCQQYYSSLLFTFGP
With B5, the results for the “pseudovirus neutralization IC50” value in assay [1], in assay [2] and in assay [3] were 44.1 ng/mL, more than 1000 ng/mL and 11.3 ng/mL, respectively. The “ELISA binding EC50” value in assay [4] came out at 3.54 ng/mL.

B6: C5230 (protein)
chain 1: EVQLVESGGGLIQPGGSLRLSCAASGLIVSSNYMNWVRQAPGKGLEWISVIYSGGSTFYADSVKGRFTISRDNSKNTLYLQMKSLRVEDTAVYYCARLGSYGRDGYDVWGQGTLVTVSS
chain 2: SYELTQPPSVSVAPGQTARITCGGNNFGNKSVHWYQQRPGQAPVLVVYDDSDRPSGIPERFSGSKSGNTATLTISRVEAGDEADYYCQVWDSSNDRGVFGTGTKVTVL
As to B6, the “pseudovirus neutralization IC50” value in assay [1] was more than 1000 ng/mL; in assay [2] it was 3.67 ng/mL; in assay [3], 4.53 ng/mL. In assay [4], the “ELISA binding EC50” value came to 4.49 ng/mL.

B7: C5163 (protein)
chain 1: QVQLVQSGAEVKKPGASVKVSCKASGYTFTSYHIDWVRQATGQGLEWMGWMNPVSGNTGYAQKFQGRLTMTRDTSITTAYMELSGLRSDDTAMYFCARGPLWYDTSGRAFHIWGQGTMVTVSS
chain 2: QSALTQPASVSGSPGQSITISCTGTSSDIGNYNYVSWYQQHPGKAPRLIIFDVSDRPSGVSHRFSGSKSGNTASLTISGLQTEDEADYYCASYTTSSTLLFGGGTKLTVL
On to B7, for which the figures for the “pseudovirus neutralization IC50” value in assay [1], in assay [2] and in assay [3] were more than 1000 ng/mL, more than 1000 ng/mL and 0.4 ng/mL, respectively. Moreover, the “ELISA binding EC50” value in assay [4] worked out at 3.81 ng/mL.

B8: C5228 (protein)
chain 1: QLQLQESGPGLVKPSETLSLICTVSGGSISSSSNYWGWIRQPPGKGPEWIGTIYNRETTYYNPSLKTRLTISVDTSKNQFSLKMSSVTAADTAVYYCANIVGAAFHWGQGTLVTVSS
chain 2: DIQMTQSPSSLSASVGDRVTITCRASQSIGKYLNWYQQKPGKAPNLLIYTASSLQSGVPSRFSGSGSGTEFTLTISSLQAEDFATYYCQQTYSMPEVTFGPGTKVDIK
B8: the “pseudovirus neutralization IC50” value in assay [1] came to 1.79 ng/mL; in assay [2], 3.53 ng/mL; in assay [3], 2.07 ng/mL. For the same molecule, the “ELISA binding EC50” value in assay [4] worked out at 2.97 ng/mL.
